Experimental data taken from PubChem BioAssay AID652104 (National Center for Advancing Translational Sciences (NCATS), 2013).
Out of some 410,000 compounds screened, about 7,200 (1.8%) were called active. The shares of active, inactive and inconclusive entries below differ from those in the screen. Calls come from the whole dose curve; as a rule, active = well fitted activation curve with a large enough effect; inconclusive = small, poorly fitted or top-dose-only effect, or another doubt; inactive = no such curve, though single readings can be large or run the other way. No potency is given beside an inconclusive call; the fits are too rough.

Test: qHTS of TDP-43 Inhibitors; note: nearly all actives have a fitted effect of over 50% in size; for growth rescue (activation): % of control where 0% means no effect
Conditions: TDP-43 expressing yeast growth rescue, BacTiter-Glo, 24 h; growth rescue (activation): at 46.1 µM (top of the series) unless noted
Procedure, shortened: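 Yeast expressing TDP-43 (pregrown in raffinose, seeded at OD600=0.02 in galactose medium) exposed to compounds 24 hr at 30 deg C. Growth read by BacTiter-Glo luminescence; rescue of toxicity appears as increased signal.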
Potency is the fitted concentration of half-maximal effect; tags give direction and shape of the fitted curve.

Compound | Potency | growth rescue (activation)
CCCN1Cc2cccc(C(=O)NCc3ccccc3OC)c2C1=O | inconclusive [activator, single point] | 
CCN(CC)S(=O)(=O)c1ccc2[nH]cc(C(=O)NC3CC3)c(=O)c2c1 | inactive | 
CCN(CCCNC(=O)C1CCN(C(=O)c2cc3sccc3n2C)CC1)Cc1ccccc1 | inactive | 
N#Cc1c(N)sc2c1CCN(C(=O)OCc1ccccc1)C2 | inconclusive [activator, single point] | 
Fc1ccc(CCNC(=S)Nc2ccc(F)cc2)cc1 | inconclusive [activator, partial curve] | 
O=[N+]([O-])c1cccc2c(S(=O)(=O)N3CCCCC3)cccc12 | inconclusive [activator, partial curve] | 
Cc1oc(-c2ccccc2F)nc1CS(=O)(=O)CC(=O)N1CCN(c2ccc(Cl)cc2)CC1 | inactive | 
Cc1ccc(N2C(=O)Nc3ccccc3S2(=O)=O)cc1Cl | inconclusive [activator, single point] | 
CN1c2ccsc2C(O)=C(C(=S)Nc2ccccc2)S1(=O)=O | inconclusive [activator, single point] | 
Cc1ccc(N2CC(NC(=O)c3ccco3)CC2=O)cc1 (stereo unspecified) | inactive | 
Cc1ccc(S(=O)(=O)Nc2ccc3[nH]c(=O)sc3c2)cc1C | inconclusive [activator, partial curve] | 
N#Cc1c(-c2ccc(Br)cc2)nc2n(c1=O)CCCS2 | inconclusive [activator, single point] | 
Cc1cc(-c2cc(-c3ccc(Cl)cc3)on2)nc(NCC2CC2)n1 | inconclusive [activator, partial curve] | 
S=c1[nH]nc(-c2ccccc2Cl)n1Cc1ccccc1 | inconclusive [activator, partial curve] | 
Cc1cc(C)c(Cc2c(C)nc3c(C(=O)NCc4ccco4)cnn3c2C)c(C)c1 | inactive | 
CCOC(=O)NC(=O)/C(N=Nc1cc(C)cc(C)c1)=C(\C)O | inconclusive [activator, full curve] | 
O=S(=O)(c1ccc(Br)cc1)c1nc(-c2cccs2)oc1SCc1ccc(F)cc1 | inactive | 
CCCCOC(=O)c1ccc(NC(=O)COC(=O)C2CC2C)cc1 (stereo unspecified) | inconclusive [activator, partial curve, poor fit] | 
Cc1ccc(NC(=S)NCc2ccccn2)cc1 | inactive | 
O=C(CC1Oc2ccccc2NC1=O)NCCCN1CCCC1=O (stereo unspecified) | inconclusive [activator, full curve, poor fit] | 
Cc1ccc(Cc2c(-c3ccccc3)nc3c(C)cc(Br)cn23)cc1 | inconclusive [activator, partial curve] | 
C[C@H](NC(=O)c1nc[nH]c1C(=O)N[C@@H](Cc1ccccc1)C(=O)OCc1ccccc1)C(=O)OCc1ccccc1 | inactive | 
Cc1ccc(S(=O)(=O)N2CCN(C(=O)COC(=O)CCOc3ccccc3)CC2)c(C)c1 | inconclusive [activator, partial curve] | 

Compound | Potency | growth rescue (activation)
CCOC(=O)C1=C(N)Oc2ccc3ccccc3c2C1c1cccnc1 (stereo unspecified) | inactive | 
O=C1OCCC1Sc1nc2ccccc2c(=O)n1Cc1ccc(F)cc1 (stereo unspecified) | inconclusive [activator, partial curve] | 
O=C(CCn1nnc2ccccc21)N1CCN(c2ccccc2)CC1 | inconclusive [activator, partial curve] | 
Cc1cc(C)cc(Cn2cc(CN3CC(N4CCSCC4)CS3(=O)=O)nn2)c1 (stereo unspecified) | inactive | 
CC(C)(C)C(=O)NC(=O)Nc1ccccc1C(F)(F)F | inconclusive [activator, partial curve] | 
Cc1cnc(C(=O)OCC(=O)NCc2ccc(Cl)cc2)cn1 | inconclusive [activator, partial curve] | 
CCCC(=O)NCCCc1nc2ccccc2n1C(C)C | inconclusive [activator, single point] | 
O=C(c1ccccc1)c1ccc2nc(N3CCN(c4ccccc4)CC3)c3nncn3c2c1 | inconclusive [activator, full curve] | 
O=C(O)c1cnn2c(C(F)(F)F)cc(-c3ccco3)nc12 | inconclusive [activator, partial curve] | 
CCCCC(=O)NC(c1ccc(Cl)cc1Cl)c1ccc2cccnc2c1O (stereo unspecified) |  | inconclusive: 84% [activator]
CN(C)c1cccc(C(=O)Nc2nc3ccc(S(=O)(=O)NC(C)(C)C)cc3s2)c1 |  | inactive: 6.18% [at 9.22 µM]
CSc1nsc(SCC(=O)N2CCN(c3ccccc3)CC2)n1 | inconclusive [activator, partial curve] | 
Cc1csc(NC(=O)CCCc2cccs2)n1 |  | inactive: 12.7% [at 9.22 µM]
COc1ccc(NC(=O)CCCSc2nc(-c3ccco3)cc(C(F)(F)F)n2)cc1 | inconclusive [activator, single point] | 
OC(c1cccc(Cl)c1)c1ncc(-c2ccc(Oc3ccccc3)cc2)[nH]1 (stereo unspecified) |  | inconclusive: -68.5% [activator]
COc1ccc(OCCn2c(N)nc3ccccc32)cc1 | inconclusive [activator, single point] | 
O=C(c1ccc(Cl)cc1)c1c[nH]c(C(=O)C(Cl)(Cl)Cl)c1 | inactive | 
CCOC(=O)c1cccc(NC(=S)NC(=O)c2cccnc2)c1 | inconclusive [activator, single point] | 
COC(=O)COc1ccc2c(c1)O/C(=C\c1ccco1)C2=O |  | inconclusive: 30.5% [activator]
Clc1cccc(NCc2nnc(SCc3ccccc3)o2)c1 | inactive | 
Cc1cc2cc3c(cc2nc1SCC(=O)N1CCCC1)OCCO3 | active: 17.8 µM | 
CC(=O)N1CCN(C2=NC(=O)/C(=C/c3ccc(OS(=O)(=O)c4ccccc4)cc3)S2)CC1 | inactive | 
O=C1C=C(c2ccccc2)C[C@H](c2cccs2)[C@H]1n1nnc([N+](=O)[O-])n1 |  | inconclusive: -85.9% [activator]
